Reference: article PMC10726135
The other results are listed elsewhere or left out. At the low end of the ranking the order means little. Measured with an extract: partners may take part in the binding.

Target: T1, HNF4alpha2 (COS-7 nuclear extract) (UniProt P41235)
T1 sequence: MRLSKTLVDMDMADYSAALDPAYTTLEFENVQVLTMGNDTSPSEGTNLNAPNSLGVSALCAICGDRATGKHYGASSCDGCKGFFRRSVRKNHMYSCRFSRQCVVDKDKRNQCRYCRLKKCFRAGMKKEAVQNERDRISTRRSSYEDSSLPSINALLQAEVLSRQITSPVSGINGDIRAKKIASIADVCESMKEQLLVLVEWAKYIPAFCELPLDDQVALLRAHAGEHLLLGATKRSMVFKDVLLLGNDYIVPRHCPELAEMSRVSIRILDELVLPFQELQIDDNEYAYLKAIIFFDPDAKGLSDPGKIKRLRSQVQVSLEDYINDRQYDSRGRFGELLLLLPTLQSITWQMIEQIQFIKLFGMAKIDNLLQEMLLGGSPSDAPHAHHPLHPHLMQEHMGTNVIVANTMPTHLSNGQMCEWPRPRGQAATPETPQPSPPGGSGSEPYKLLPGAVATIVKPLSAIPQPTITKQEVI
Assay: protein-binding microarray
Settings: COS-7 nuclear extract on double-stranded Agilent 4x180k PBM; binding buffer, salt, pH and temperature not given; high values mean tight binding; double strand, one strand shown; sequences stand for … in …GCCTAGGGAGATTAGAGTATCGGTCGA

Sequence | binding signal (log2 normalized intensity)
CAAGGCAAGAGAGTCATAAAGGGCAGGAAC | -0.937
GGGGCAATAACCCTAGACACCGGGTGAAGG | -1.09
ACATCTTTAATTATCATCTCTGTGTATAAG | 1.99
TCCAAGGTCACACAGCTAAGAGCCGCAGAG | -1.12
CTTTTGGCCAGAGTAAGGCGGTTCTTGTCT | 0.958
ACACCAGGCCCTCGGCATCATGCCCTTTGG | 3.91
ACATTCAGATTCCTGAGCCCAGATCCTCTA | -1.24
TCCCTTTAGTGGAGTATAGGAACATGAACT | 1.96
CGCAGCACACTGCAGCGGCATTCTCTGGTC | -1.11
TCCAGGGAACTGTCCACCAAGGAGGTGCTG | -1.03
ATGAGGCAAAGGTCAGGAGTTCCATTTAGC | 3.23
CAACCCACTGTTGCCCCTTCCAAAGTCCAC | 5.46
AGGAGACCGAGCAGCTCTTTACAAAGCCCA | -1.13
CTCTGCGCCCTTGGAATATCCTGCCTAACA | -1.04
AGCAGAACCCAGGGTCACAAGGATCCCATT | -1.1
TGTCAACAGCTCAAGTTATCTGAAGCTCTC | -1.2
GAGTCCACGTACTTAACTACTACACTAAAA | -1.19
CTGCAGCTGAGTAGAGGAAAGATAACTAAA | -1.2
GGCTTTATGACCAGTGTGTTGTGCTGACCT | 3.49
CCAAAGTCCATGTTCATAACTGTTAAACTC | 1.56
GGCTGATATCTCTCTGGCTGGTGGGCAAGT | 1.26
CAAATCCAGGATCAAATACAGAATCAATGC | -1.03
AAAAGCAAACCAAAAAGTTGGTTGGAGCTA | -1.34
GCCCTCTTGGTATCAGCTTTGAGACACCTG | -0.876
CTATGTGGTTTTGTAAATATAGGATCATGT | 1.89

Sequence | binding signal (log2 normalized intensity)
AGATTCCTCTGAGTCCTCTTCCCAACTTGG | -1.05
GTCATTAATTAACTTGTGTTCAGAGCTTGC | 1.14
ATGGGAACATTCCTCAGGGAATTTCTAGGT | -1.27
TGATAAGATTTATCTCTCCAAGGTACTGTG | -0.19
GCAGCTCAGACTGCTTCTCTGCTGGGGCCC | -1.1
TTTTCCTTGGCTGTGCTGCCCTTTGCCCTT | 7.6
GGTGACAAGGAAAACTACACTCTTGCTAAA | -1.1
GATGCTGGGCAGCTTGTGTGCGTTTCCCAG | 1.15
TGGATGGATTCAGATCCAGTGGACTCTCTG | 2.94
TTTGCCATTTGGAGAGAGTTTGGCCCCAGT | 2.44
GGGCGTGTAGGGAGTGGTTCCCACAGCCCA | -1.14
GGGAGGACAAAGTTCTGTCCTTTGTCCCCC | 4.32
CTCCTCCCTCAGGGATCTTTGCACTTGATG | 1.32
GCTCTGCATATGCCAACAGGTGCTCTTTAT | 1.37
TAGGCCTCAAGACAAACAATAGATAGGACA | -0.217
TGAGGATGGGCAGTCCCTATAGCCTCACTT | -1.12
GCTGCATTTGTCCGGGTATGTTCTTAAGAT | 1.76
CTGACTTGCAACCTTTGCCCTGTTGTCTTT | 5.43
GAGTGAACCTAGTGGCTGTGGAAGTCTGGC | -0.0781
TTGGCTGATAAAACAAATCTACAAATGTTT | 0.452
AGATAAACCAAGCCTGCAGCACCTTGATGC | -0.938
CAGGATTCTTGCTGCAGCTGGGCTATACAA | -1.12
AAATTCCAATATAGCAAAGAGAGTCAAAGT | 0.882
AAGTATCTCGGTCAAACCTTTGACCCTTTA | 6.7
CTGGCAGTGAAGGTTCAGTGAAGTAGTGTG | 1.66

Sequence | binding signal (log2 normalized intensity)
GGACCACGATCAGCCAGCAGGGGGCGCAGA | -1.06
CCTTGCCTGGCTACCTCTTAGCTACCCTGT | -0.223
CCCCGCCCCCAGTGCACCTTAATAAGCACA | 4.39
TTTCCATTTTTGCTCCTGCACTTTTGTGCT | 1.16
GCACTTTTGGAGTTTGACCTGGAGCCAGGG | 4.6
CTACTGCCAGCCAGGGCCACCCATCAGTGG | -1.02
GTTACCTTGGGGTCAAAGTACATCCCCTAA | 6.4
TGAGAAACCACAGGAGTGCCGTGAGGGGTT | -0.712
GAGATGCTGGGTGGCATAGTTGATGTCAAT | 0.93
CTGAGGTGCTCTCAGATAAGAGATGAGGAA | -1.12
TAGTGATTTAGGCTTTTGGGCCCTGTCTGA | 0.52
AAGCATGACAAAATAACGAAGGCATTCTTA | -1.11
GTACCTAGGACAAAGCAAACACTCATTTCA | -1.18
TTCCGGGGGCGGTTTTTCCATTGTACTCAG | 1.47
ACACTGAGGAAAAGCTGTCTACAAACACAG | -1.06
GGGGCCTGAGGAAAGGAAGATGCACATTCC | -1.13
TATGAGAGAGAGAGAGAGGTGGGCAAAGGT | 1.53
CCTTGGGACAGCTGGCCTCATGCCTTATCT | -0.701
CTTATCTGAGGTGCCCTTACATTTTGCTCT | 1.53
ATAAGCACCCTGCTCCAGCCAGAGGCCTTA | -1.03
AGAGATCAAAGGGGAGGTGGGAAAAGAAAT | -1.2
GTCGCCGTGAGGTTATTTGCAGACTCTGTT | 1.37
CAAAACAACCACTCTTATCAGACAGGATAT | -1.05
